In publication PMC4336329 (PLoS ONE, 2015):
About 14,000 (4.5%) of roughly 310,000 compounds showed an effect of 50% or more. Effects have a minus sign here. The list shows a part of the results.

The molecules below were run against human ether-à-go-go-related gene (hERG) potassium channel (human, UniProt Q12809) (assay: primary screen, population patch clamp on CHO cells stably expressing hERG).
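Also: peak tail current of the secondary pulse compared with the same well before compound.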

Sequence of human ether-à-go-go-related gene (hERG) potassium channel (Q12809 whole entry, looked up): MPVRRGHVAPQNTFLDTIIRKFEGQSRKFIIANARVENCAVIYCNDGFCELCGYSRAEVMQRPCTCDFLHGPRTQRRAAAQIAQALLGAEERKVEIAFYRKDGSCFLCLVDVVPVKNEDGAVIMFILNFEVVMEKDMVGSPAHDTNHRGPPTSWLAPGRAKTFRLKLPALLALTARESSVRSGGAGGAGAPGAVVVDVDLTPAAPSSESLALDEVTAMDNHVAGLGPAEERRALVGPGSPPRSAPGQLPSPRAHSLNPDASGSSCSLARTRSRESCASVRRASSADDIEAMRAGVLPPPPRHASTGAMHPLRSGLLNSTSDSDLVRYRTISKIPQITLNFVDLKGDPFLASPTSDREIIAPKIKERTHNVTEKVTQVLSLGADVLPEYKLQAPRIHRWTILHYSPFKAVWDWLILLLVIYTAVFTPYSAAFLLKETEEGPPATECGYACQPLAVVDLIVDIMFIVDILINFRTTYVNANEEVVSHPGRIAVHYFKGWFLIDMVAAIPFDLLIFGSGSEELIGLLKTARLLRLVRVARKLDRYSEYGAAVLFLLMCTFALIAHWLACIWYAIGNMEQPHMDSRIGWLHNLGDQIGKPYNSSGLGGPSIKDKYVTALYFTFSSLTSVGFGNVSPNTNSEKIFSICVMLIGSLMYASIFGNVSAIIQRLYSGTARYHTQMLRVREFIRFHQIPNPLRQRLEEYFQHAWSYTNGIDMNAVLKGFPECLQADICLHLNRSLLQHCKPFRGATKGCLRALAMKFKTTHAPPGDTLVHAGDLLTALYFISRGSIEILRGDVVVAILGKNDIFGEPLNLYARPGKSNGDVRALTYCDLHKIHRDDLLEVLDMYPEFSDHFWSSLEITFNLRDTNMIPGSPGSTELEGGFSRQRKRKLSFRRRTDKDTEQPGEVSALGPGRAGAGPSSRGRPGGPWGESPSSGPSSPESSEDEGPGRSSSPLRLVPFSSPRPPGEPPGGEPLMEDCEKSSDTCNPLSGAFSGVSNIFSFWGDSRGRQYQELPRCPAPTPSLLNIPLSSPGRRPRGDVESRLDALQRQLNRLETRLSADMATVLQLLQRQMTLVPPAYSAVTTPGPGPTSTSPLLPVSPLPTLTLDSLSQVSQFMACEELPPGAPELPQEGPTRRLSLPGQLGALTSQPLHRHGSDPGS

Row | SMILES | hERG current change (%, negative = inhibition) at 10uM [%]
1 | Cc1ccc(OCCOc2ccc(Br)cc2)c([N+](=O)[O-])n1 | -6.68
2 | O=[N+]([O-])c1ccc(N2CCCCC2)c(Cl)c1N1CCCCC1 | 3.77
3 | Cc1ccc(-c2onc(C)c2C)cc1S(=O)(=O)N1CC(C)Oc2ccccc21 (stereo not drawn) | 10
4 | O=c1ccc(-c2ccc(S(=O)(=O)N3CCN(c4ccccc4)CC3)o2)n[nH]1 | 11.2
5 | CCC1=NN(C(=O)Cc2ccc([N+](=O)[O-])cc2)C(O)(C(C)(C)C)C1 (stereo not drawn) | -39.6
6 | COc1ccc2sc(N(CCCN(C)C)C(=O)c3ccc(C(=O)c4ccccc4)cc3)nc2c1.Cl | -77.3
7 | CCN(CC)S(=O)(=O)c1cc(NC(=O)C(CC(C)C)NC(N)=O)ccc1C (stereo not drawn) | 6.42
8 | Cc1cc(C)nc(NC2=NCC(=O)N2c2ccc(Cl)cc2)n1 | -5.04
9 | Cc1ccc2nc(-c3ccc(NC(=O)COC(=O)c4ccc(=O)[nH]c4)cc3)sc2c1 | 4.67
10 | CCOP(=O)(OCC)C(NC(=O)C(Cl)Cl)C(Cl)(Cl)Cl (stereo not drawn) | 14.8
11 | COc1ccc(NC(=O)COC(=O)c2ccc(F)cc2F)cc1 | -9.29
12 | CCOC(=O)C1CCN(CC(C)(C)NS(=O)(=O)c2ccc(Cl)cc2)CC1 | -1.75
13 | O=C(CSc1nnnn1-c1ccccc1)NCc1ccco1 | -0.902
14 | CCCN1C(=O)/C(=C/C=C2\N(CC)c3ccccc3C2(C)C)SC1=S | 8.96
15 | CC(C)OC(=O)CSc1nnc2n1C(C)(C)Cc1ccccc1-2 | -2.65
16 | CC(C)[C@H](NC(=O)c1ccccc1)C(=O)OCC(=O)N1CC(=O)Nc2ccccc21 | -1.48
17 | N=c1c2c(ncn1CCCO)Oc1cc(O)ccc1C2c1ccccc1 (stereo not drawn) | -33.7
18 | Cc1ccc2nc(N3CCN(C=O)CC3)nc(-c3ccccc3)c2c1 | -56
19 | Cc1cc(C(=O)NCC(=O)OCC(=O)N(C2CCCCC2)C2CCCCC2)ccc1[N+](=O)[O-] | 9.99
20 | NC(=O)c1cc([N+](=O)[O-])c(Cl)cc1NCc1cccnc1 | -8.53
21 | CCOC(=O)N1CCN(CC(=O)Nc2ccc(F)cc2F)CC1 | -28.6
22 | COc1ccc(NC(=O)CS(=O)c2cccc(C(F)(F)F)c2)cc1 (stereo not drawn) | 29.8

Row | SMILES | hERG current change (%, negative = inhibition) at 10uM [%]
23 | COc1ccc(CC(=O)Oc2ccc(C(C)C)cc2)cc1S(=O)(=O)N1CCOCC1 | 18.8
24 | Cc1c(Br)cc(C(=O)N2CCCCCC2)c(C)c1C | -38.2
25 | CCCCCCCN=CC1=C(O)CC(c2ccccc2)CC1=O (stereo not drawn) | -6.52
26 | C[C@H](NC(=O)OC(C)(C)C)C(=O)NCC1CCC(C(=O)O)CC1 (stereo partly drawn) | -4.8
27 | O=C(/C=C/c1ccccc1)Nc1nnc(SCC(=O)c2ccc3ccccc3c2)s1 | 4.75
28 | Cc1ccc(C2CC2c2n[nH]c(=S)n2-c2ccc(Cl)cc2)cc1 (stereo not drawn) | 5.54
29 | Cc1nc2sc3c(c2c(=O)n1/N=C/c1ccco1)CCCC3 | 16.8
30 | O=C(CC1CCS(=O)(=O)C1)Nc1ccc[nH]c1=O (stereo not drawn) | 2.85
31 | COc1cc(/C=N/NC(=O)c2cc3c(ccc4ccccc43)o2)cc(OC)c1O | 17.3
32 | COc1cc(NC(=O)CSc2nc3ccccc3n2-c2ccccc2)c(C)cc1[N+](=O)[O-] | 5.58
33 | CC(Sc1nncs1)C(=O)Nc1ccc2c(c1)OCO2 (stereo not drawn) | 17.4
34 | N#CCNC(=O)c1cccn1-c1ncc(C(F)(F)F)cc1Cl | 5.01
35 | O=C1C(Cc2ccc(O)cc2)NC(=S)N1Cc1ccccc1 (stereo not drawn) | -7.58
36 | Cc1ccc(-c2noc(-c3ccccc3C(=O)N3CCOCC3)n2)cc1 | -12.2
37 | O=C(Nc1ccccc1F)c1ccccc1-c1ccccc1 | -11.7
38 | CCC(C(=O)Nc1ccc2c(c1)OCCO2)n1c(=O)[nH]c2ccccc2c1=O (stereo not drawn) | 16
39 | C/C(=N\O)C1(C)N(O)C(C)(C)C(c2ccc(F)cc2)=[N+]1[O-] (stereo not drawn) | 10.3
40 | COc1ccc(Nc2nc(-c3cccnc3)nc3ccccc23)cn1 | -1.74
41 | CCCN(CCC)CCNC(=O)C1c2ccccc2C(=O)N(CCOC)C1c1ccc(F)cc1 (stereo not drawn) | -4.45
42 | CCOC(=O)C(=CNc1ccc(C(F)(F)F)cc1)C(=O)OCC | 10.7
43 | Cc1ccc(C(C)(C)NC(=O)C2CCC(=O)N(C3CCCCCC3)C2)cc1 (stereo not drawn) | 16.6
44 | Cc1ncc(CO)c2c1Oc1nc(-c3ccccc3)nc(SCC(=O)N3CCCCC3)c1C2 | 18.5

Row | SMILES | hERG current change (%, negative = inhibition) at 10uM [%]
45 | COc1ccc(NS(=O)(=O)c2cc(C(=O)Nc3ccccc3C(=O)O)ccc2C)cc1 | 13
46 | CC1(C)CC2CC(C)(CN2S(=O)(=O)c2ccc(F)cc2F)C1 (stereo not drawn) | -11.8
47 | C/C(=N\NC(=S)NCCc1ccccc1)c1ccc(O)cc1O | 18.1
48 | COc1ccc2c(c1OC)C(=O)O[C@H]2[C@@H]1c2cc3c(cc2CCN1C)OCO3 | 3.16
49 | S=C(NCCN(C1CCCCC1)C1CCCC1)Nc1cccc(Cl)c1 | -71.3
50 | COc1ccccc1C(=O)Nc1ccc2c(c1)nc1n2CCSC1 | -7.51
51 | COc1ccc(N=C(N(C)C)P(=O)(N(C)C)N(C)C)cc1 | -2.08
52 | Cc1ccc2oc(=O)c3cnn(CC(=O)N4CCCCC4C)c3c2c1 (stereo not drawn) | -30.3
53 | COc1ccccc1NC(=O)CSc1nnc(Cc2ccccc2)o1 | -5.65
54 | CC(=O)c1ccc(NC(=O)CSc2nc3nc(C)cc(C)n3n2)cc1 | -3.94
55 | Cc1cc(/C=N/NC(=O)c2ccsc2)c(C)n1-c1cnccn1 | 20.1
56 | COC(=O)COc1cccc2c(=O)n(CC(=O)NCc3ccccc3)ccc12 | -6.25
57 | CN(CCNC(=O)c1cc2c(=O)n(C)c3ccccc3c2n1C)Cc1ccccc1 | -17.8
58 | c1ccc(-c2nnc(N3CCOCC3)nc2-c2ccccc2)cc1 | -1.68
59 | O=C(NCC(=O)N(Cc1cccs1)C(C(=O)NC1CCCCC1)c1ccncc1)c1ccco1 (stereo not drawn) | -15
60 | COc1ccc(S(=O)(=O)NCC(=O)Nc2ccc3c(c2)OCCO3)cc1OC | 4.55
61 | COC(=O)N1N=C(c2ccc(Br)cc2)CC1(O)C(F)(F)F (stereo not drawn) | -1.71
62 | COc1ccc(OC)c(NC(=O)Cn2cnc3c(cnn3-c3ccccc3)c2=O)c1 | -12.8
63 | O=C(Nc1ccccc1Oc1cccnc1)C1CCCN(C/C=C/c2ccccc2)C1 (stereo not drawn) | -76.9
64 | Cc1ccc(S(=O)(=O)/N=C2/NC(=O)/C(=C\c3cc(Br)cc(Br)c3O)S2)cc1 | 10
65 | COCC(=O)Nc1nc(-c2ccccc2)ns1 | -4.27
66 | O=c1cc(CSc2ccccc2)[nH]c2ccccc12 | 8.17

Row | SMILES | hERG current change (%, negative = inhibition) at 10uM [%]
67 | O=C(Cc1ccccc1)N1CCc2ccccc21 | -9.57
68 | COc1ccc(OC)c(NC(=O)c2ccc(CSc3ncccn3)cc2)c1 | 8.99
69 | COc1ccc(OCC(=O)Nc2cc(-c3nn(C)c(=O)c4ccccc34)ccc2OC)cc1 | 7.36
70 | O=C(NN1C(=O)C2C3C=CC(C3)[C@H]2C1=O)c1cccnc1 (stereo partly drawn) | 19.5
71 | COc1ccc(NC(=O)CN(C)C(=O)C2=NN(c3ccccc3)C(=O)CC2)cc1 | 7.07
72 | Cc1nc(N)c(C#N)c(-c2cccnc2)c1-c1ccccc1 | 2.99
73 | COc1ccc(C2C(C(=O)c3ccc(C)o3)=C(O)C(=O)N2Cc2ccco2)cc1OC (stereo not drawn) | 21
74 | COc1ccc(CNC(=O)c2cccc(NC(=O)c3ccccc3)c2)cc1 | -71.5
75 | OCCNCCCOc1cc(Cl)ccc1Cl | -14.4
76 | O=C1NC(Cc2ccccc2)c2nc3ccccc3c(=O)n2-c2cc(Cl)ccc21 (stereo not drawn) | 11.4
77 | O=C1CN(C(=O)COc2ccccc2Cl)c2ccccc2N1 | -13.8
78 | CC(NCc1ccc(Cl)c(Cl)c1)C(O)c1ccccc1.Cl (stereo not drawn) | -0.311
79 | COc1ccc(S(=O)(=O)Nc2cccc(C)c2C)c2cccnc12 | -0.391
80 | Cc1cc(Cl)c(C(=O)Nc2cccc(C(F)(F)F)c2)c(C)n1.Cl | -1.08
81 | O=C(c1ccc(F)cc1)C1CCN(Cc2cn[nH]c2-c2ccc(F)cc2)CC1 | -75.2
82 | CCOC(=O)c1cnn(-c2ccccc2)c1NC(=O)CN1CCCCC1 | 6.45
83 | Cc1ccc(F)cc1NC(=O)c1cccc2nccnc12 | -9.21
84 | O=C(NCC1CCCO1)c1ccc2ccccc2n1 (stereo not drawn) | -3.04
85 | COc1ccccc1NC(=O)C1=C(C)Nc2nnnn2C1c1cccc(Br)c1 (stereo not drawn) | -11.5
86 | CCOC(=O)C1C(c2ccccc2)N(C)OC1(O)C(F)(F)F (stereo not drawn) | 6.62
87 | Cc1ccc(-c2csc(NC(=O)C[n+]3cc(-c4ccc(C)cc4)n4c3CCC4)n2)cc1.[Cl-] | -72.5
